Some of the results follow.
system: T1, C. trachomatis L2/434/Bu expressing GFP (CTL2-GFP); design: species or system HeLa; C. trachomatis total inclusion area by high-content imaging, normalised to DMSO; details: total inclusion area; 28.5 h, 10 µM; inhibitor
T1 construct: L2/434/Bu GFP intracellular growth in HeLa cells
In short: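 Following bulk GFP and resorufin fluorescence reads, infected cells were fixed, Hoechst-stained and imaged on a high-content platform. Inclusion total area and number per well served as growth proxies; nuclei counts indicated host viability. MICs were derived as for the fluorescence assay.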

Question: With `Cc1ccc(S(=O)(=O)N(C)CCCC#N)cc1` [CBK085945] as the molecule, how does the “% of control remaining” value read?
Answer: The value was 64.2578.

Question: With `O=S(=O)(c1ccc(C(F)(F)F)cc1Cl)N1CCN(Cc2ccc(F)cc2F)CC1` [CBK062739] as the molecule, how does the “% of control remaining” value read?
Answer: The value was 81.6422.

Question: With `Cc1ccc2nc(CNC(=O)N(C)CCc3c(C)n[nH]c3C)cn2c1` [CBK306984] as the molecule, how does the “% of control remaining” value read?
Answer: The value was 48.4871.

Question: Which “% of control remaining” value does the source give for `COc1ccc(C2(C(=O)NCc3ccc(OC(F)(F)F)cc3)CC2)cc1` [CBK149823] here?
Answer: The value was 84.465.

Question: With `Cc1cccnc1Nc1ccc(C2CCCCN2Cc2ccc3nccnc3c2)cn1` (stereo not shown) [CBK286133] as the molecule, how does the “% of control remaining” value read?
Answer: The value was 96.2771.

Question: With `COc1ccc(CNC(=O)c2cc(S(=O)(=O)N3CCOCC3)cs2)cc1` [CBK307577] as the molecule, how does the “% of control remaining” value read?
Answer: Its value is 42.2559.

Question: For `COC(=O)CCC(=O)Nc1ccc(S(N)(=O)=O)cc1` [CBK261351], which “% of control remaining” value is on record?
Answer: Its value is 97.7808.

Question: How did the “% of control remaining” value turn out when `NS(=O)(=O)c1ccc(NC2=NC(=O)C(CC(=O)Nc3ccccc3)S2)cc1` (stereo not shown) [CBK266417] was run?
Answer: Its value is 119.177.

Question: `O=[N+]([O-])c1ccc2c(c1)oc1ccc(S(=O)(=O)N3CCCC3)cc12` [CBK268512] was tested. Which “% of control remaining” value did it give?
Answer: The value was 69.289.

Question: How did the “% of control remaining” value turn out when `Nc1ccc(S(=O)(=O)Nc2nccc(/C=C/c3ccc(Cl)cc3)n2)cc1` [CBK263254] was run?
Answer: Its value is 74.8397.

Question: For `COc1cccc2ncn(CCc3csc(N)n3)c(=O)c12` [CBK307679], which “% of control remaining” value is on record?
Answer: The value was 40.3105.

Question: `O=C(CSCCOc1ccc(Br)cc1)Nc1ccc2c(c1)OCCO2` [CBK296714] was tested. Which “% of control remaining” value did it give?
Answer: The value was 99.5458.

Question: How did the “% of control remaining” value turn out when `COc1ccc(-n2nc3cc(C)c(NC(=S)NC(=O)c4oc5ccccc5c4C)cc3n2)cc1` [CBK264188] was run?
Answer: Its value is 101.614.

Question: Which “% of control remaining” value does the source give for `Cc1cc(C(=O)Oc2cccc(NC3=NS(=O)(=O)c4ccccc43)c2)c2ccccc2n1` [CBK265302] here?
Answer: Its value is 107.418.

Question: Which “% of control remaining” value does the source give for `Clc1ccc(OCCCn2ccnc2)c(CN2CCSCC2)c1` [CBK307194] here?
Answer: Its value is 65.7927.

Question: How did the “% of control remaining” value turn out when `CC(C)(C)OC(=O)N1CCC(NC(=O)c2ccc(-c3ccc(S(C)(=O)=O)cc3)cn2)CC1` [CBK174352] was run?
Answer: Its value is 119.737.

Question: Which “% of control remaining” value does the source give for `Cc1ccc2nc(N(CCCN(C)C)C(=O)c3ccco3)sc2c1` [CBK287639] here?
Answer: The value was 100.469.

Question: `CCOc1cccc(-c2ccc(N(C)CCN(C)C)nc2)c1` [CBK036904] was tested. Which “% of control remaining” value did it give?
Answer: Its value is 118.447.

Question: With `CCOC(=O)c1cnn(C2CCCN(Cc3ccc(C#N)o3)C2)c1` (stereo not shown) [CBK304045] as the molecule, how does the “% of control remaining” value read?
Answer: The value was 50.4746.

Question: `OC1CCC(Nc2cncc(-c3ccc4ccccc4c3)n2)CC1` (stereo not shown) [CBK065463] was tested. Which “% of control remaining” value did it give?
Answer: The value was 88.1968.

Question: Which “% of control remaining” value does the source give for `NC(=S)N1N=C2CCCCC2C1c1ccccc1` (stereo not shown) [CBK288371] here?
Answer: Its value is 64.5465.

Question: `CCn1nc(C)c(CNC(=O)N(Cc2ccccn2)CC(C)C)c1C` [CBK304193] was tested. Which “% of control remaining” value did it give?
Answer: The value was 34.3054.

Source: PMC12040169 (PLOS Biology, 2025)
